Hit rate of the full screen: of about 280,000 compounds, about 100 (0.036%) were called active. The inconclusive results got no clear call from the source; some entries with a clear call stand among them for comparison. Calls follow the shape of the dose curve; as a rule, active = well fitted inhibition curve with a large enough effect in the signal ratio, with a control signal flat (not every such curve was filed as active); inconclusive = small, poorly fitted or top-dose-only effect, or effect the other way, or a change in a side signal; inactive = no such curve, though single readings can be large or run the other way; the % refers to the signal ratio. Potencies of inconclusive entries are doubtful fits and often do not repeat. A note “side channel” means that the fit belongs to a control or component signal, not to the main read-out.
target: Muscleblind-like protein 1 (Homo sapiens) (UniProt Q9NR56); assay: qHTS Assay for Inhibitors of MBNL1-poly(CUG) RNA binding; conditions: TR-FRET MBNL1-His/biotin-(CUG)12 binding, 665/545 ratio; series mostly up to 57.5 µM
Summary of the method: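 Compounds (final 92 nM to 58 uM) are added to His-tagged MBNL1 and biotin-(CUG)12, then terbium anti-His antibody and streptavidin-XL665 (5 nM final). After 60 min at room temperature, the 665/545 nm ratio is read.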
Potency is read from the fitted curve at half-maximal effect; tags tell the direction and shape of the fitted curve or compound fluorescence and quenching.

Chain of UniProt Q9NR56 (Q9NR56 whole entry, looked up): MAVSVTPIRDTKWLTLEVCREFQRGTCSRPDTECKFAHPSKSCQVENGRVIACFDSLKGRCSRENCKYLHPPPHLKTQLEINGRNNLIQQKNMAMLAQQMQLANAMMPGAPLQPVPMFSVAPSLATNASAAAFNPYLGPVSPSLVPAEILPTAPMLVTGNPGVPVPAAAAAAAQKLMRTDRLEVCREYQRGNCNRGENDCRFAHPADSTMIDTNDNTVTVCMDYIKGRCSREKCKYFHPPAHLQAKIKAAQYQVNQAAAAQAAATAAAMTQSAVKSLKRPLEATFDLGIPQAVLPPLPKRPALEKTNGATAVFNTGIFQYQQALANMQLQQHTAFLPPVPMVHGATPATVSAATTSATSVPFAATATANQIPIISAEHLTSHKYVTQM

| SMILES | Potency |
| --- | --- |
| FC(F)(F)c1ccccc1/C=N/n1c(C2CCCCC2)n[nH]c1=S | inactive |
| O=C(Nc1ccccc1N1CCOCC1)c1ccc([N+](=O)[O-])cc1 | inconclusive: 14.1 µM [quencher, side channel, partial curve] |
| O=C(C[n+]1cc(Br)cc2ccccc21)c1ccc(Cl)cc1 | inconclusive: 17.8 µM [quencher, side channel, partial curve] |
| Cc1cc(C)c2cc(CN(Cc3nnnn3Cc3ccc(F)cc3)C3CCCC3)c(=O)[nH]c2c1 | inconclusive: 15.8 µM [quencher, side channel, partial curve] |
| CC1(C)Cc2c(C#N)c(N)sc(=S)c2CS1 | inconclusive: 35.5 µM [quencher, side channel, single point] |
| c1ccc(-c2nn3c(Cn4nnc5ccccc54)nnc3s2)cc1 | inactive |
| COc1ccc(-c2cc3ccc(OCc4nn[nH]n4)cc3oc2=O)cc1 | inconclusive: 39.8 µM [quencher, side channel, single point] |
| Cc1nc2ncccn2c1-c1csc(NCc2ccco2)n1 | inconclusive: 28.2 µM [quencher, side channel, partial curve] |
| O=C(N/N=C/c1ccco1)/C(=C/c1cccc([N+](=O)[O-])c1)NC(=O)c1ccccc1 | inconclusive: 15.8 µM [quencher, side channel, partial curve] |
| COc1ccc(CCC(=O)Nc2cc([N+](=O)[O-])ccc2OC)cc1 | inconclusive: 31.6 µM [quencher, side channel, partial curve] |
| S=c1[nH]nc(-c2ccncc2)n1/N=C/c1cccc(Cl)c1 | inactive |
| COc1ccc(OCCNc2cc(N3CCOCC3)ccc2[N+](=O)[O-])cc1 | inconclusive: 12.6 µM [quencher, partial curve] |
| CC(=O)Nc1cc2nn(-c3ccccc3)nc2cc1C | inactive |
| NS(=O)(=O)c1ccc(CNC(=O)/C=C/c2ccc(Cl)c(Cl)c2)cc1 | inconclusive: 0.0891 µM [fluorescent, side channel, full curve, poor fit] |
| C=C(C)CSc1nc2ccccc2[nH]1 | inconclusive: 0.316 µM [inhibitor, full curve, poor fit] |
| CCOc1ccc2c(c1)/C(=N/N1C(=O)c3ccccc3C1=O)C(=O)N2 | inconclusive: 15.8 µM [quencher, side channel, partial curve] |
| COc1ccc2cc3[n+](cc2c1OC)CCc1cc2c(cc1-3)OCO2 | inconclusive: 7.94 µM [quencher, side channel, full curve] |
| COc1cc(N2CCCC2)c(OC)cc1/C=C(/C#N)c1ccc(F)cc1 | inactive |
| COc1ccccc1NS(=O)(=O)c1cccc(-n2c(O)c(C=Nc3ccccc3C(=O)O)c3ccccc3c2=O)c1 | inconclusive: 31.6 µM [quencher, side channel, single point] |
| COc1ccc(CCC(=O)Nc2ccc3c(c2)OCO3)cc1 | inconclusive: 10 µM [inhibitor, single point] |

| SMILES | Potency |
| --- | --- |
| N#CC(c1ccccc1)c1ccc2c(C(F)(F)F)cc(C(F)(F)F)nc2n1 (centres undefined) | inconclusive: 12.6 µM [quencher, side channel, partial curve] |
| S=C(N/N=C/c1ccc2ncccc2c1)Nc1cccnc1 | inconclusive: 10 µM [quencher, side channel, partial curve] |
| NS(=O)(=O)c1ccc(CCNC(=O)CNCCc2ccccc2)cc1 | inactive |
| COc1ccc(S(=O)(=O)N2CCCCC2)cc1NC(=O)c1ccco1 | inactive |
| CN(C)S(=O)(=O)c1ccc(NC(=O)c2ccc([N+](=O)[O-])cc2)cc1 | inconclusive: 8.91 µM [quencher, side channel, partial curve] |
| O=C(Nc1cccc(F)c1)N1CC=C(n2c(=O)[nH]c3ccccc32)CC1 | inconclusive: 3.16 µM [fluorescent, side channel, full curve, poor fit] |
| CC(C)(C)N1C(=O)c2ccc(C(=O)Nc3ccc(O)cc3)cc2C1=O | inconclusive: 28.2 µM [quencher, side channel, partial curve] |
| Cc1cc(C)c(S(=O)(=O)n2nc(C)c(Br)c2C)c(C)c1 | inconclusive: 79.4 µM [inhibitor, single point] |
| Cn1cc(Br)c(C(=O)N/N=C/c2cc3c(cc2Cl)OCO3)n1 | inconclusive: 14.1 µM [quencher, side channel, partial curve] |
| CCOc1ccc(CN2C(=O)c3ccccc3C2=O)cc1C(=O)Nc1nnc(SCC)s1 | inconclusive: 8.91 µM [fluorescent, side channel, partial curve] |
| N#CCSc1nc(-c2ccccc2)cs1 | inconclusive: 0.631 µM [quencher, side channel, full curve, poor fit] |
| Cc1sc2nc3c(SC(C)C(=O)O)cc(C(=O)c4ccccc4O)cn3c(=O)c2c1C (centres undefined) | inconclusive: 25.1 µM [quencher, side channel, partial curve] |
| CCS(=O)(=O)N1CCN(c2ccc(C(=O)N3CCOCC3)cc2[N+](=O)[O-])CC1 | inconclusive: 28.2 µM [quencher, side channel, partial curve] |
| O=C(CCCN1C(=O)/C(=C/c2ccccc2)SC1=S)N1CCOCC1 | inconclusive: 12.6 µM [quencher, side channel, partial curve] |
| CCCCCN1C=CC(=C2C(=O)c3ccccc3C2=O)C=C1 | inconclusive: 10 µM [quencher, partial curve] |
| O=C(Nc1ccc(NC(=O)c2cc([N+](=O)[O-])ccc2N2CCOCC2)cc1)c1cccs1 | inconclusive: 17.8 µM [quencher, side channel, partial curve] |
| Cc1c(CC(=O)NCCCCCC(=O)O)c(=O)oc2cc3c(cc12)CCC(C)(C)O3 | inactive |
| CCn1c(-c2cccc(Br)c2)n[nH]c1=S | inactive |
| O=c1oc2ccccc2cc1-c1nc2ccccc2o1 | inconclusive: 14.1 µM [quencher, side channel, partial curve] |
